Assay results: PubChem BioAssay AID624172 (National Center for Advancing Translational Sciences (NCATS), 2012)
The campaign covered roughly 380,000 compounds. About 25 (0.007%) were called active. The inconclusive results got no clear call from the source; some entries with a clear call stand among them for comparison. The call rests on the fitted dose curve; in most records, active means well fitted activation curve with a large enough effect; inconclusive means small, poorly fitted or top-dose-only effect; inactive means no such curve, though single readings can be large or run the other way. Potencies of inconclusive entries are left out as doubtful fits.

These compounds were tested against Glucagon-like peptide 1 receptor (Homo sapiens) (UniProt P43220) (assay: qHTS of GLP-1 Receptor Agonists). Conditions: HEK293 GLP-1R CRE-luciferase, luminescence, 4-6 h, cells express a hypersensitive GLP-1R form; activation: at 45.6 µM (top of the series) unless noted.
Potency means the concentration at half of the fitted maximal effect; tags describe the fitted curve by direction and shape.
Wherever activation is given: % of control where 0% means no effect.

Chain of UniProt P43220 (P43220 whole entry, looked up): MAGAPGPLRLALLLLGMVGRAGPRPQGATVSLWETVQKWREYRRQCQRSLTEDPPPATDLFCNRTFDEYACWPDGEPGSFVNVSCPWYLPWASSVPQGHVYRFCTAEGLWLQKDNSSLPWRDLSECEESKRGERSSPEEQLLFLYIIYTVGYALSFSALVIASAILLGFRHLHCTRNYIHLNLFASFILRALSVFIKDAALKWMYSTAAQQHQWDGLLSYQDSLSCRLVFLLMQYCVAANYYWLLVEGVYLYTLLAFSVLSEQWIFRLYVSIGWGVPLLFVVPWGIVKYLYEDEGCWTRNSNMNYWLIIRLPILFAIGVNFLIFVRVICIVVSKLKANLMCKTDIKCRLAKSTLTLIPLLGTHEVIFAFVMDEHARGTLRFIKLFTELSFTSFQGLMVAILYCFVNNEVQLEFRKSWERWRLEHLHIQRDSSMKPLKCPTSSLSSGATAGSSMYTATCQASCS

SMILES	activation	Potency
COc1cc2nc(CN3CCN(S(=O)(=O)c4ccccc4[N+](=O)[O-])CC3)[nH]c(=O)c2cc1OC	inactive: -0.566%	–
COc1ccc(-c2cc(NC=O)c3ncc(-c4cccc(C(F)(F)F)c4)n3c2)cc1OC	–	inconclusive [activator, full curve]
O=C(OCCc1cc2ccccc2c(=O)o1)c1cccc(Br)c1	–	inconclusive [activator, single point]
Nc1nc(Nc2ccc(Cl)cc2)nc(NCc2ccco2)c1[N+](=O)[O-]	–	inconclusive [activator, partial curve, poor fit]
CCN(CCCNC(=O)C1CCN(S(=O)(=O)N2CCC3(CC2)OCCO3)CC1)c1ccccc1	inactive: -0.082%	–
O=C1CC2(CCN(C(=O)c3ccc(Br)cc3)CC2)Oc2ccccc21	inactive: -4.44%	–
CN(CC(=O)Nc1ccc(S(=O)(=O)N2CCCC2)cc1)Cc1ccc(Cl)cc1Cl	–	inconclusive [activator, single point]
O=c1c2c(-c3ccco3)csc2nc(SCc2cn3cccnc3n2)n1-c1ccccc1	–	inconclusive [activator, partial curve, poor fit]
Cc1ccc2c(c1)=N/C(=N\c1[nH]c(O)c3ccccc13)N=2	–	inconclusive [activator, single point]
CCOc1ccc(Cc2nccc3cc(OCC)c(OCC)cc23)cc1OCC	–	inconclusive [activator, partial curve, poor fit]
Nc1nc(Nc2ccccc2)nc(NCc2ccccc2)c1[N+](=O)[O-]	–	inconclusive [activator, single point]
Cc1nc2c3cc(F)ccc3n(Cc3ccccc3F)c2s1	–	inconclusive [activator, partial curve, poor fit]
Cc1ccc(C)c(-c2ccc(=O)n(Cc3ccc(F)cc3Cl)n2)c1	–	inconclusive [activator, partial curve, poor fit]
COc1cccc(CC(=O)OCC(=O)NNC(=O)c2ccc([N+](=O)[O-])cc2)c1	inactive: -9.84%	–
CCOC(=O)c1cc2c(=O)n3ccccc3nc2n(C(C)C)c1=NC(=O)c1ccncc1	–	inconclusive [activator, single point]
COc1ccc(N=c2ssnc2Cl)cc1	inactive: -0.767%	–
O=c1c(Cl)nc2cc(Cl)ccc2n1CCNc1ncc(C(F)(F)F)cc1Cl	inactive: -4.69%	–
CCOC(=O)C1CCCN(C2=NC(=O)/C(=C/c3ccc(O)c(OCC)c3)S2)C1 (stereo not drawn)	–	inconclusive [activator, partial curve]
Cc1cc2oc(=O)c(CC(=O)NCCCN(C)C)c(C)c2c2occ(C(C)(C)C)c12	–	inconclusive [activator, partial curve, poor fit]
Cc1ccc(-c2n[nH]c(Cc3ccccc3)n2)cc1	inactive: 2.04%	–
O=C(NNC(=O)c1cnccn1)c1ccc(Cl)cc1	inactive: 2.09%	–
CN(C)/C=C1\Oc2ccc3ccccc3c2C1=O	inactive: 2.04%	–
CCN(CC)c1ccc(/C=N/NC(=O)Cc2ccc(OC)c(OC)c2)cc1	–	inconclusive [activator, partial curve, poor fit]

SMILES	activation	Potency
Cc1nc2cc(NCc3cc([N+](=O)[O-])ccc3O)ccc2n1Cc1ccccc1	–	inconclusive [activator, partial curve, poor fit]
COc1cc(OC)cc(-c2ncc3ccccn23)c1	–	inconclusive [activator, partial curve, poor fit]
COc1ccc(CNc2nc3nc(C)c(Cl)c(C)n3n2)cc1	–	inconclusive [activator, partial curve, poor fit]
O=C(OCc1cc2ccccc2[nH]c1=O)C1CCCCC1	–	inconclusive [activator, single point]
COc1ccc(CN2C(=O)c3ccccc3C2c2nnnn2-c2c(C)cccc2C)cc1OC (stereo not drawn)	–	inconclusive [activator, single point]
O=C(NC(=O)c1ccccc1F)OCc1ccc(Cl)cc1Cl	–	inconclusive [activator, single point]
O=S(=O)(c1ccc(Cl)cc1)N1CCN=C1SCc1cccc(Cl)c1	–	inconclusive [activator, partial curve, poor fit]
O=c1c2ccccc2[nH]c(=S)n1C1CCCCC1	inactive: 0.714%	–
CC(=O)Oc1ccccc1-c1nc(C)nc(N(C)C(C)=O)n1	–	inconclusive [activator, full curve]
Cc1cccc(OCc2nnc(SCC(=O)N3CC(=O)Nc4ccccc43)o2)c1	inactive: -6.28%	–
O=C(Nc1ccc2c(c1)OCCO2)c1ccc(S(=O)(=O)N2CCCCC2)cc1	–	inconclusive [activator, full curve, poor fit]
O=C1c2ccccc2C2=Nc3ccccc3SC(c3ccc(Cl)cc3)C12 (stereo not drawn)	inactive: 0.99%	–
CO/N=C(\C(=O)N[C@@H]1C(=O)N2C(C(=O)O)=C(COC(C)=O)CS[C@H]12)c1csc(N)n1 (stereo in doubt)	–	inconclusive [activator, single point]
O=C(Nc1ccc(F)cc1)[C@H](CSCc1ccccc1)N1Cc2ccccc2C1=O	inactive: -2.17%	–
CCOC(=O)c1c(C)[nH]c2cc(Br)c(O)cc12	–	inconclusive [activator, partial curve]
Cc1ccc(C(=O)NCC(C)NC(=O)c2ccc(C)c([N+](=O)[O-])c2)cc1[N+](=O)[O-] (stereo not drawn)	–	inconclusive [activator, full curve]
COc1ccc(/C=N\NC(=O)c2ccccc2F)cc1COc1ccc(F)cc1F	–	inconclusive [activator, single point]
COc1ccc(/C(C)=N/NC(=O)c2ccc(CSc3cccc4cccnc34)cc2)cc1OC	–	inconclusive [activator, partial curve]
O=c1cc(NCc2ccco2)c2ccccc2o1	–	inconclusive [activator, partial curve, poor fit]
CCOc1ccccc1NC(=O)Cn1cnc2onc(-c3ccc(F)cc3)c2c1=O	inconclusive: 63.3% [activator]	–
Cc1cc(C)c(S(=O)(=O)c2ccccc2)c(Cl)n1	–	inconclusive [activator, single point]
COc1ccc(C(C)=O)cc1Cn1nc(C)c([N+](=O)[O-])c1C	–	inconclusive [activator, single point]
CCOC(=O)c1cc(C#N)c(N2CCN(c3ccccn3)CC2)nc1-c1ccccc1	–	inconclusive [activator, partial curve, poor fit]

SMILES	activation	Potency
COc1ccccc1N1CCN(Cc2cc(=O)c(OCC(=O)Nc3ccccc3)co2)CC1	inactive: 3.92%	–
Cc1cc(C)n(CCOC(=O)c2sc3ccccc3c2Cl)n1	–	inconclusive [activator, partial curve, poor fit]
Cc1ccc(-c2nc3ncccc3o2)cc1NC(=O)CC(C)C	inactive: -0.411%	–
Fc1ccccc1Nc1nc2ccccc2n2nnnc12	–	inconclusive [activator, full curve]
COc1cc(Cl)cc(/C=N\NC(=O)c2ccc3c(c2)OCO3)c1O	inactive: -2.61%	–
Cc1cccc(N2CCN(Cc3nc(-c4ccccc4Cl)oc3C)CC2)n1	inconclusive: 37.3% [activator]	–
O=C(NCC(c1ccco1)N1CCCC1)c1cccc(S(=O)(=O)N2CCc3ccccc32)c1 (stereo not drawn)	inactive: -0.639%	–
COc1ccccc1Cn1nc(C(=O)O)c2ccccc2c1=O	–	inconclusive [activator, single point]
O=C(c1ccco1)N(CCC(c1ccccc1)c1ccco1)Cc1ccc(F)cc1 (stereo not drawn)	–	inconclusive [activator, partial curve, poor fit]
C=CCn1c(SCC(C)=O)nc2scc(-c3ccco3)c2c1=O	–	inconclusive [activator, partial curve]
COc1ccc(-c2cn(-c3ccc(C)c(C)c3)c(=S)[nH]2)cc1OC	inactive: 6.35%	–
C(=N\Nc1nc(-c2ccccc2)cs1)/c1cccnc1	inactive: -8.14%	–
Cc1nc(Cl)cc(N/N=C/c2ccc(O)cc2O)n1	–	inconclusive [activator, partial curve]
CCOC(=O)c1cnc(-n2nc(C)cc2C)nc1-n1nc(C)cc1C	–	inconclusive [activator, partial curve]
CC(=O)Nc1ccc(S(=O)(=O)N2CCN=C2SCc2ccc(C)cc2)cc1	–	inconclusive [activator, partial curve, poor fit]
CC1(C)CC(NCCN2CCN(C3=CC(=C(C#N)C#N)CC(C)(C)C3)CC2)=CC(=C(C#N)C#N)C1	inactive: -3.09%	–
CNS(=O)(=O)c1cccc(C(=O)OCc2cc(Cl)cc3c2OCOC3)c1	–	inconclusive [activator, partial curve, poor fit]
COc1ccccc1-c1cc(C(F)(F)F)nc(S(C)(=O)=O)n1	–	inconclusive [activator, partial curve, poor fit]
O=C(c1ccc2c(c1)OCO2)N1CCCC(c2ccccc2)C1 (stereo not drawn)	–	inconclusive [activator, single point]
CCSC1=NCCN1S(=O)(=O)c1ccc(F)cc1	inconclusive: 43.1% [activator]	–
CCN(CC)C(=O)Cn1cc(S(=O)(=O)Cc2cccc([N+](=O)[O-])c2)c2ccccc21	inactive: 7.91%	–
CCOC(=O)c1ccc(C#Cc2ccc3c(c2)C(C)(C)CCS3)nc1	inactive: 4.48%	–
